{"source": "paper PMC7819943", "about": "“Rice protein-binding microarrays: a tool to detect cis-acting elements near promoter regions in rice”", "note": "Some of the results follow.", "data": [{"target": "T1, OsWOX13 (Oryza sativa, UniProt Q5QMM3 1-267)", "T1 sequence": "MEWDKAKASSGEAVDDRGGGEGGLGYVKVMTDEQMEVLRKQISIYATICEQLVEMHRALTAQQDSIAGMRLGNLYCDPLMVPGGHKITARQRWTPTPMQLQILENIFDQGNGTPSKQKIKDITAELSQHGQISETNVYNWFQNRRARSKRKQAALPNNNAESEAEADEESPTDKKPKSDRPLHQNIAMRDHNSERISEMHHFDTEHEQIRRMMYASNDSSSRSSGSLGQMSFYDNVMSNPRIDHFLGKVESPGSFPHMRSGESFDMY", "experiment": "protein-binding microarray (RPBM); PBS, 2% BSA, 51.3 ng/ul salmon testes DNA, 50 uM zinc acetate, 200 nM TF, 25 C, 1 h; high values mean tight binding", "details": "protein: recombinant; tags: N-terminal polyhistidine and DsRed monomer fusion (pET32a); label: CyDye5-dUTP incorporated in the synthesized complementary strand; 3' TTTTT single-stranded linker to array surface; dsDNA, one strand shown", "procedure,_shortened": "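Binding signal is defined as the fluorescence intensity of each feature in arbitrary units, read on an Axon 4000B scanner. Transcription factors with N-terminal polyhistidine and DsRed fusions came from E. coli BL21-CodonPlus and were purified on Ni–NTA. They were incubated at 200 nM for 1 h at 25 °C on a custom Agilent array that had been made double-stranded with Cy5-dUTP, with 50 µM zinc acetate present, and the array was washed.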", "values": [{"sequence": "AGTAGTAGAATTGATTAGTTTAAGCTGCAGGTTAATTAGCCGGAGTCACCTAGTGCAG", "binding signal": "19000 fluorescence intensity (a.u.)"}, {"sequence": "ATGTATTTGCAAATTGGAATTCTCTGTGCAACCTCGCAAGCGGAGTCACCTAGTGCAG", "binding signal": "3380 fluorescence intensity (a.u.)"}, {"sequence": "ACTTTGATGGCATTTTCAATCTTACCAAATTTTGATACAGCGGAGTCACCTAGTGCAG", "binding signal": "10500 fluorescence intensity (a.u.)"}, {"sequence": "GCTGAAATTATCTCGGTCATGGTAGGTCGATTGATGGGACCGGAGTCACCTAGTGCAG", "binding signal": "10000 fluorescence intensity (a.u.)"}, {"sequence": "AAATTCCGTATCAATCATCTCCCTCCCCAACCCTCCCCTTCGGAGTCACCTAGTGCAG", "binding signal": "7040 fluorescence intensity (a.u.)"}, {"sequence": "TTTAATTAGTTAAGATTAAAATTGAGTTTAAGATGTAAACCGGAGTCACCTAGTGCAG", "binding signal": "19000 fluorescence intensity (a.u.)"}, {"sequence": "ATAGATAATTTATTCAATTGGATTTATCAGTTTGAGAGGTCGGAGTCACCTAGTGCAG", "binding signal": "30500 fluorescence intensity (a.u.)"}, {"sequence": "AATGTTTTAATCACATTGATTAGCAACTAATTAATCTTAGCGGAGTCACCTAGTGCAG", "binding signal": "47100 fluorescence intensity (a.u.)"}, {"sequence": "AAAACAAGATTATGAATTTTAACGTGAAAATTTCAAGTTTCGGAGTCACCTAGTGCAG", "binding signal": "4070 fluorescence intensity (a.u.)"}, {"sequence": "AGTCAGATACCAATCAACACACCCAGGGTACGAGCTAGGCCGGAGTCACCTAGTGCAG", "binding signal": "10300 fluorescence intensity (a.u.)"}, {"sequence": "TGGTGATTGGGTGTTGTGCCGGTCATCTTCTCCCTCGCCGCGGAGTCACCTAGTGCAG", "binding signal": "37400 fluorescence intensity (a.u.)"}, {"sequence": "GGTTTCCGTGTCAACGTTTGACTGTCCGTCTTATATGATTCGGAGTCACCTAGTGCAG", "binding signal": "3450 fluorescence intensity (a.u.)"}, {"sequence": "TAACCAAATGATTAGGTCCCTGCTTAATAAAATAGTTAAGCGGAGTCACCTAGTGCAG", "binding signal": "8110 fluorescence intensity (a.u.)"}, {"sequence": "TCCTTAATTACATAAGAATTATATAAAGGTCATGAACGAACGGAGTCACCTAGTGCAG", "binding signal": "16300 fluorescence intensity (a.u.)"}, {"sequence": "GGGGATTGAGATCCTATGACGTTACTGTTCACCGTAACTGCGGAGTCACCTAGTGCAG", "binding signal": "3720 fluorescence intensity (a.u.)"}, {"sequence": "ACAACATAAATTGTCGTCCTCATCTCCAATTCTCCACAGCCGGAGTCACCTAGTGCAG", "binding signal": "3300 fluorescence intensity (a.u.)"}, {"sequence": "ATAAAAGTAAATTTAAATAATAATCTAAATTTATTATTTTCGGAGTCACCTAGTGCAG", "binding signal": "4270 fluorescence intensity (a.u.)"}, {"sequence": "TAATAATTATAGTGACTTGAGTAGCACCATAATATTCTAACGGAGTCACCTAGTGCAG", "binding signal": "12400 fluorescence intensity (a.u.)"}, {"sequence": "TATAAATTATCAGTGTCATCACACAATGTATGTACATTGTCGGAGTCACCTAGTGCAG", "binding signal": "7480 fluorescence intensity (a.u.)"}, {"sequence": "TATAATTACGATATAACATATAATTACGATATAACTTGTACGGAGTCACCTAGTGCAG", "binding signal": "12400 fluorescence intensity (a.u.)"}, {"sequence": "TCACTAATCAATTTTATTATCATTCGCGGCCAGTTCACAGCGGAGTCACCTAGTGCAG", "binding signal": "20300 fluorescence intensity (a.u.)"}, {"sequence": "CAATTCTGAAATTGACAGGTTGAATTTGCTAATTGAGGTACGGAGTCACCTAGTGCAG", "binding signal": "43600 fluorescence intensity (a.u.)"}, {"sequence": "TTAAGGTAAAATTTGATTGGAATCAGCACGAGACTGTGCTCGGAGTCACCTAGTGCAG", "binding signal": "24000 fluorescence intensity (a.u.)"}, {"sequence": "AGGAGTACTTAATTAATCATAAGAAAATACGTCGCTCTATCGGAGTCACCTAGTGCAG", "binding signal": "6590 fluorescence intensity (a.u.)"}, {"sequence": "AATTAATTATAAATATTAAACGTAGACTATTAATAAAACCCGGAGTCACCTAGTGCAG", "binding signal": "16900 fluorescence intensity (a.u.)"}, {"sequence": "TATGATGATGGGAAGCATTTTGGAAGCATGCAGTGGTTTGCGGAGTCACCTAGTGCAG", "binding signal": "6030 fluorescence intensity (a.u.)"}, {"sequence": "GCGACAGATTATTTAACGGTGTAAACCTTTTAGAGTAGTGCGGAGTCACCTAGTGCAG", "binding signal": "3770 fluorescence intensity (a.u.)"}, {"sequence": "TTGATTAAATACAAAATTAATAGTCAAAGTTTTAAAAGTTCGGAGTCACCTAGTGCAG", "binding signal": "18200 fluorescence intensity (a.u.)"}, {"sequence": "CTAATCCATCGCAAAATTTGTACTAATCAAGTACTTCCACCGGAGTCACCTAGTGCAG", "binding signal": "3490 fluorescence intensity (a.u.)"}, {"sequence": "ACAAATTATACCAAAACATCCAGAACAACCACCTCTCAATCGGAGTCACCTAGTGCAG", "binding signal": "3700 fluorescence intensity (a.u.)"}, {"sequence": "TACTGTAGCACCACATTGTCAATCATGGCGCAATTATGCTCGGAGTCACCTAGTGCAG", "binding signal": "6910 fluorescence intensity (a.u.)"}, {"sequence": "TGGCACAAGTGATTGGGACGTTGCCCTATCAATCGCGGCACGGAGTCACCTAGTGCAG", "binding signal": "15900 fluorescence intensity (a.u.)"}, {"sequence": "GATCATTTCAGTGATTAATTTAATTGGAAAAGTAATTCAACGGAGTCACCTAGTGCAG", "binding signal": "6700 fluorescence intensity (a.u.)"}, {"sequence": "TCCATGTCATTTTCTCCCATCACAGTAGTGTGAATTGTGACGGAGTCACCTAGTGCAG", "binding signal": "4180 fluorescence intensity (a.u.)"}, {"sequence": "CACAGGATTGAGAGAATGGCTTCCAGCTCACTCGGGGTTTCGGAGTCACCTAGTGCAG", "binding signal": "22600 fluorescence intensity (a.u.)"}, {"sequence": "AAAATATGTGGGTGATTTATTACAATAGAGTATGTGGTGGCGGAGTCACCTAGTGCAG", "binding signal": "3580 fluorescence intensity (a.u.)"}, {"sequence": "CCTCGTCAATCCCCAAACCCTCCTCCTCCTCTCCGGCGATCGGAGTCACCTAGTGCAG", "binding signal": "3510 fluorescence intensity (a.u.)"}, {"sequence": "TTTGCCTTTTGATTGTATGACTGGAATGCTTGTTGAGCTTCGGAGTCACCTAGTGCAG", "binding signal": "11900 fluorescence intensity (a.u.)"}, {"sequence": "TAAATGACTGAAACATTTTCGATCTACTTAGTGAAACAATCGGAGTCACCTAGTGCAG", "binding signal": "4580 fluorescence intensity (a.u.)"}, {"sequence": "CAGCATTGACAGGCACTTAGCTAAGTACGTAGCTATATAGCGGAGTCACCTAGTGCAG", "binding signal": "11000 fluorescence intensity (a.u.)"}, {"sequence": "CGTTTCATTAATTCTGACATTTTATCACACAAACATGCATCGGAGTCACCTAGTGCAG", "binding signal": "3740 fluorescence intensity (a.u.)"}, {"sequence": "TTTTAGTTATAAATCACTGTAATTTTAGCATATTGCAACCCGGAGTCACCTAGTGCAG", "binding signal": "4020 fluorescence intensity (a.u.)"}, {"sequence": "CCTTGCCTGACAACAATCAATTAGTTTGCTACTGCTACTCCGGAGTCACCTAGTGCAG", "binding signal": "16100 fluorescence intensity (a.u.)"}, {"sequence": "TTATAATAAGCTGACAGAGAATAAACTGTGAGTTGTTTGTCGGAGTCACCTAGTGCAG", "binding signal": "3760 fluorescence intensity (a.u.)"}, {"sequence": "AATAGACATATAAATGTCACTGTCTAAATAATAGGGACCTCGGAGTCACCTAGTGCAG", "binding signal": "5220 fluorescence intensity (a.u.)"}, {"sequence": "TGTAATTAAATTTGTGATTTGTGAACCTTCTTCAATTCTACGGAGTCACCTAGTGCAG", "binding signal": "31200 fluorescence intensity (a.u.)"}, {"sequence": "TCGTAATTTACAAATAAATAAGGTGCGATTGACAAATAACCGGAGTCACCTAGTGCAG", "binding signal": "29000 fluorescence intensity (a.u.)"}, {"sequence": "CCCCTTCATCAGTGCCTAATTAGCTGTAGTGTCGGTTAGGCGGAGTCACCTAGTGCAG", "binding signal": "13400 fluorescence intensity (a.u.)"}, {"sequence": "TAATAACGAATTAATTAGATTTAATAAATTCATATCGCAGCGGAGTCACCTAGTGCAG", "binding signal": "23500 fluorescence intensity (a.u.)"}, {"sequence": "ACTAAAATTTGATAAAATTTATTTTGCCTATAATATAAACCGGAGTCACCTAGTGCAG", "binding signal": "6120 fluorescence intensity (a.u.)"}, {"sequence": "CCCCTCTTAATTATTCAACCCTCCCAGAAATATGACTCATCGGAGTCACCTAGTGCAG", "binding signal": "3360 fluorescence intensity (a.u.)"}, {"sequence": "TTATAATTAGTCCGAAAATCGTGACTGCAAACATATCCATCGGAGTCACCTAGTGCAG", "binding signal": "14600 fluorescence intensity (a.u.)"}, {"sequence": "TCCAATTTACTAATTACCACTTTATACGTACAATTATTGACGGAGTCACCTAGTGCAG", "binding signal": "23500 fluorescence intensity (a.u.)"}, {"sequence": "CACACACTAATTAATGTCGTACGAATGCTACGTACAGTCACGGAGTCACCTAGTGCAG", "binding signal": "11600 fluorescence intensity (a.u.)"}]}]}
